From publication PMC4336329 (PLoS ONE, 2015)
The campaign covered roughly 310,000 compounds. About 2,200 (0.71%) showed an effect of 50% or more. The effect is printed as a negative number. The list shows a part of the results.

The compounds below were run against human ether-à-go-go-related gene (hERG) potassium channel (human, UniProt Q12809) (assay: primary screen, population patch clamp on CHO cells stably expressing hERG).
Sequence of human ether-à-go-go-related gene (hERG) potassium channel (Q12809 whole entry, looked up): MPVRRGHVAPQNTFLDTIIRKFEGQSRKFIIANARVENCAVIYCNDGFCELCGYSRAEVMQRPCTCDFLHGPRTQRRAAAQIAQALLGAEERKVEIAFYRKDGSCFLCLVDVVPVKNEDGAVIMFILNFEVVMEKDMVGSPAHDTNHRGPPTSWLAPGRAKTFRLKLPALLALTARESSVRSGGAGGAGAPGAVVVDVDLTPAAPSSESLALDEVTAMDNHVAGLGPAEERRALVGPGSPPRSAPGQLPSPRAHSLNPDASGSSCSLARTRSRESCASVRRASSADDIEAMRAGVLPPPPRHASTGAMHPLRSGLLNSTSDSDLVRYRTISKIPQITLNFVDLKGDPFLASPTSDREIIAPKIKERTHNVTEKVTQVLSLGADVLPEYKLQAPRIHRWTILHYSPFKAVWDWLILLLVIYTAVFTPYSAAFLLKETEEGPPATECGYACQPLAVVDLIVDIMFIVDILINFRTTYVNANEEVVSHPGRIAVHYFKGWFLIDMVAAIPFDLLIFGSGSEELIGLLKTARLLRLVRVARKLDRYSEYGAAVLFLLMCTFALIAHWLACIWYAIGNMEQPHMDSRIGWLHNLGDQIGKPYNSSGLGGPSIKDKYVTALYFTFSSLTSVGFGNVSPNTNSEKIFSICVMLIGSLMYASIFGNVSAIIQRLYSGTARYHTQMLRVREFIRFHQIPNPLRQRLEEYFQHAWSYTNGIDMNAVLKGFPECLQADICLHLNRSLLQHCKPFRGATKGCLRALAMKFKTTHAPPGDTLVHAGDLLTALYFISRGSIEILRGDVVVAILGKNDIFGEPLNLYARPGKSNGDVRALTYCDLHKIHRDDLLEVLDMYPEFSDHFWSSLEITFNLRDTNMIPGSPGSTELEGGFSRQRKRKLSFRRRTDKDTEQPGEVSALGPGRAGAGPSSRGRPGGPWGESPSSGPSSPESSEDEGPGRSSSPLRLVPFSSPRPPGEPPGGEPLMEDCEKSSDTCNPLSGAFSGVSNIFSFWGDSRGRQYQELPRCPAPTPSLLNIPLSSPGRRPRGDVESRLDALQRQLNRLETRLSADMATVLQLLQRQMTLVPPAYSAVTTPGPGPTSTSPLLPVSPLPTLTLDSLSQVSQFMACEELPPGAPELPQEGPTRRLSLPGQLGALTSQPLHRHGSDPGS

Compound	hERG current change (%, negative = inhibition) at 1uM [%]
COc1ccc(NC(=O)COC(=O)CCC(=O)c2cccs2)cc1OC	2.62
CCOC(=O)c1cn(-c2ccccc2)nc1-c1ccncc1	0.949
CCn1cc(/C=N\NC(=O)Cc2ccc([N+](=O)[O-])cc2)c(C)n1	-2.04
O=C(N/C=C/c1ccccc1)c1ccccc1	19.5
Cc1ccc2[nH]cc(CCNS(=O)(=O)c3ccc(F)cc3)c2c1	8.16
Cc1cc(NC(=O)CCN2C(=O)/C(=C/c3ccccc3F)SC2=S)no1	12.2
Cc1cc(C)cc(NC(=O)COC(=O)CCCC2=NS(=O)(=O)c3ccccc3N2)c1	4.27
CCCn1nc2ccccc2c1P(=N)(N1CCOCC1)N1CCOCC1.Cl	13.9
OC(COc1ccc(CNCCc2ccccc2F)cc1)CN1CCCCC1 (centres unmarked)	4.53
Clc1ccc(/C=C/c2nc3ccccc3[nH]2)c(Cl)c1	-5.59
COC(=O)c1ccc(CNC(=O)C2CCC(=O)N(CCN3CCOCC3)C2)cc1 (centres unmarked)	2.84
CCN(CC(=O)Nc1c(F)cccc1F)C(=O)C1CCN(S(=O)(=O)c2ccc(C)cc2C)CC1	-5.01
CC(C)[C@H]1C(=O)O[C@H](C(C)C)C(=O)N(C)[C@@H](C(C)C)C(=O)O[C@H](C(C)C)C(=O)N(C)[C@@H](C(C)C)C(=O)O[C@H](C(C)C)C(=O)N1C	7.64
Oc1c(Cl)cc(Cl)c(Cl)c1Cc1c(O)c(Cl)cc(Cl)c1Cl	12.9
CCC1CCCCN1CCCNC(=O)Cn1ncc2c(C)n(Cc3ccccc3Cl)c(C)c2c1=O (centres unmarked)	3.48
O=C(Cn1nc(C(=O)O)c2ccccc2c1=O)NC12CC3CC(CC(C3)C1)C2	8.28
CCc1cc2c(s1)N(CC(=O)OC)C(=O)CN=C2c1ccccc1OC	11.1
CC1=CS(=O)(=O)CC1SC(=S)N(C)C1CCS(=O)(=O)C1 (centres unmarked)	24.3
Cc1cccc(NC(=S)Nc2cccc3ccccc23)c1	13.1
CC(C)(C)NC(=O)CSC(=Nc1ccccc1F)NC#N	8.27
CCn1c(=O)cc(OCC(=O)NCCc2cccc(C)c2)c2ccccc21	-1.1
CCN1C(=O)c2ccccc2Sc2ccc(C(=O)NCCCN3CCOCC3)cc21	6.17

Compound	hERG current change (%, negative = inhibition) at 1uM [%]
CSc1nc2ccccc2n1Cc1cccc(F)c1	5.15
CC(C)(C)c1ccc(C(=O)CSc2nc3ccccc3c(=O)[nH]2)cc1	-7.51
CCCCOC(=O)CNc1n[nH]c(=S)[nH]c1=O	10.5
CCSc1nnc(NC(=O)c2c(C)noc2C)s1	11
Cc1ccc(S(=O)(=O)NCC(=O)N2CCN(c3ccccc3F)CC2)cc1	-4.09
CCC(=O)Nc1ccc(NC(=O)CSc2nc3cc4c(cc3cc2C)CCC4)cc1	6.79
Cn1c(SCC(=O)C(C)(C)C)nnc1-c1cccnc1	0.695
O=c1c(C=Nc2cccc(C(F)(F)F)c2)c[nH]n1-c1cccc(Cl)n1	12.3
CCOC(=O)c1sc(NC(=O)CSc2nc3c(c(=O)n2-c2ccc(C)cc2)SCC3)c(C(=O)OCC)c1C	10.2
CC(C)C[C@H]1CN=C(Nc2ccccc2)N1CC1CCC1	-2.29
Cn1c(=O)[nH]c(=O)c2c1nc(N1CCCCCC1)n2CCSc1nc2ccccc2o1	7.86
O=C(COC(=O)Cc1cccc(C(F)(F)F)c1)Nc1ccccc1	13.8
CCn1ncc(CN2CCN(Cc3ccc(OC)c(C)c3C)C(CCO)C2)c1C (centres unmarked)	2.28
O=C(CCN1C(=O)COc2ccccc21)NCCN1CCOCC1	13.2
O=C(Cn1cnc([N+](=O)[O-])c1)Nc1ccccc1C(F)(F)F	0.327
CCN(CC)S(=O)(=O)c1ccc(C(=O)NC(=S)N(CCC#N)Cc2cccnc2)cc1	8.4
CCn1c(SCC(=O)Nc2ccc3c(c2)OCO3)nnc1-c1cnccn1	-5.88
NC(=O)C1CCN(C(=O)c2cnn(-c3ccccc3)c2NC(=O)c2ccco2)CC1	7.41
Cc1nnc(N(Cc2ccco2)C(=O)c2ccno2)s1	12.3
O=c1ccc2ccc(Oc3ccc(Cl)cc3[N+](=O)[O-])cc2o1	12.3
O=C(CN1CCN(c2ccccc2)CC1)N1N=CCC1c1ccccc1 (centres unmarked)	10.8
COC(=O)CCC/C=C1/SCC(NC(=O)c2ccccc2)C1=O (centres unmarked)	5.35

Compound	hERG current change (%, negative = inhibition) at 1uM [%]
COC(=O)Cn1c(=NC(=O)c2cc(OC)cc(OC)c2)sc2cc(OC)ccc21	16
O=C(COC(=O)/C=C/c1cccc(C(F)(F)F)c1)NC(c1ccccc1)c1ccccc1	-0.78
CN(C(=O)COC(=O)c1cc(-c2ccccc2Cl)nc2ccccc12)C1CCS(=O)(=O)C1 (centres unmarked)	1.78
CCc1cc2cc(OC)ccc2nc1SCC(=O)NNC(=O)c1ccco1	13.5
O=S(=O)(c1cccc2cccnc12)n1cnc2ccccc21	1.23
CC(=O)c1ccc(OCC(=O)OCc2cc(-c3ccco3)on2)cc1	13.7
COc1cccc(C(C(=O)NC2CCCC2)N(C(=O)c2ccco2)c2ccc(NC(C)=O)cc2)c1OC (centres unmarked)	-2.39
CN(C)CCCNc1nc(N)c([N+](=O)[O-])c(NC2CCCCC2)n1	-4.92
O=C(Nc1ccc(Br)cc1)C1CCN(C(=O)c2ccc(F)cc2)CC1	-13.2
O=C(NCC1CCCO1)C(=O)N/N=C/c1c(F)cccc1Cl (centres unmarked)	8.49
Cc1ccc(S(=O)(=O)N2CCN(CC(=O)NC(=O)NCc3ccco3)CC2)cc1C	7.92
CCC1CCCCN1CCCNC(=O)C1CCN(c2ncnc3c2nc2n3CCCCC2)CC1 (centres unmarked)	2.36
CN1c2ccccc2C(C)(C)C12C=Nc1c(ccc3ccccc13)O2 (centres unmarked)	16.4
CCCCNC(=O)C1CCN(Cc2ccc(OCc3ccccc3)c(OC)c2)CC1.O=C(O)C(=O)O	-21.1
CCCn1c(SCC(=O)NCCc2ccc(Cl)cc2Cl)n[nH]c1=O	2.34
CC12CCC(=O)N1C(C(=O)NCCN1C(=O)S/C(=C\c3ccc(F)cc3)C1=O)CS2 (centres unmarked)	-0.0399
CC(C)c1ccc2[nH]c(O)c(N=NC(=O)c3ccc(CSc4nncn4C)cc3)c2c1	-0.234
Cc1ccc(C)c(NC(=O)c2ccc3c(=O)n4c(nc3c2)CCC4)c1	-5.65
COc1ccc(OC)c2c(N3CCN(C)CC3)cc(C(F)(F)F)nc12	14.3
CN1CCN(CCCNC(=O)c2ccc(Cn3c(=S)[nH]c4ccc(Br)cc4c3=O)cc2)CC1	9.37
Clc1ccc(-c2nnc(CNC3CC3)o2)cc1	-3.48
CN(CC(=O)Nc1cc(S(=O)(=O)N2CCCC2)ccc1Cl)Cc1cccs1	4.58

Compound	hERG current change (%, negative = inhibition) at 1uM [%]
Cc1nn(-c2ccccc2)c(Cl)c1/C=N/NC(N)=O	11.7
CCCC(=O)c1cc2c(cc1NC(=O)c1cccs1)OCCO2	21.4
COC(=O)C(CC(=O)c1ccccc1)CC(=O)c1ccccc1	8.13
CCc1ccccc1NC(=O)Nc1cnccn1	1.23
Cc1ccccc1OCC(=O)N(Cc1cccc(F)c1)C1CCS(=O)(=O)C1 (centres unmarked)	10.1
COc1cccc(-c2cc(-c3cccnc3)c(C#N)c(N)n2)c1	6.74
CC(=O)OC[C@H]1COc2ccc3ccccc3c2[C@H]1N(C)C(C)=O	-3.9
O=C(NN=C1CCCC1)c1sc2ccccc2c1Cl	-9.75
C=CCON1C(=O)c2ccccc2C1=O	17
Cc1ccc2nc(Cl)c(C3CC(c4ccco4)=NN3C(=O)CCCC(=O)O)cc2c1 (centres unmarked)	8.17
COc1cc(Cl)cc(/C=C/c2ccc3ccccc3n2)c1OC(C)=O	16.6
CCC(c1nnc(SCC(=O)Nc2cc(S(C)(=O)=O)ccc2Cl)n1Cc1ccccc1)N(C)C (centres unmarked)	-3.44
O=C(N/N=C/c1cccnc1)c1sc2ccccc2c1Cl	2.92
COc1cccc(-c2ccc(NC(=O)C3CCCN(CCCn4cccn4)C3)cc2)c1 (centres unmarked)	-1.99
CCN(CC)S(=O)(=O)c1ccc2[nH]c(=O)cc(C(=O)Nc3ccccc3N3CCCC3)c2c1	6.7
COc1ccc(CN2CC(=O)N(c3cccc(Cl)c3)C2=S)cc1OC	12.6
COc1ccc(C(C)=O)cc1CS(=O)(=O)CC(=O)O	23.3
Cc1c(C(=O)c2no[n+]([O-])c2C(=O)c2cnn(C)c2C)cnn1C	6.82
Cc1cc(C)c2nc(N3C(=O)C(O)=C(C(=O)c4ccco4)C3c3ccco3)sc2c1.O=C(O)C(=O)O (centres unmarked)	14.6
COc1ccc(CCNC(=O)C(NS(=O)(=O)c2cccc3nsnc23)C(C)C)cc1OC (centres unmarked)	-2.12
